Consider 87 molecules from paper PMC4336329 (PLoS ONE, 2015).

Screen size: about 310,000 compounds; about 14,000 (4.5%) showed an effect of 50% or more. Effects have a minus sign here. The list shows a part of the results.
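Further: peak tail current of the secondary pulse compared with the same well before compound.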

The target of the experiment is human ether-à-go-go-related gene (hERG) potassium channel (human, UniProt Q12809). Kind of experiment: primary screen, population patch clamp on CHO cells stably expressing hERG.
Sequence of human ether-à-go-go-related gene (hERG) potassium channel (Q12809 whole entry, looked up): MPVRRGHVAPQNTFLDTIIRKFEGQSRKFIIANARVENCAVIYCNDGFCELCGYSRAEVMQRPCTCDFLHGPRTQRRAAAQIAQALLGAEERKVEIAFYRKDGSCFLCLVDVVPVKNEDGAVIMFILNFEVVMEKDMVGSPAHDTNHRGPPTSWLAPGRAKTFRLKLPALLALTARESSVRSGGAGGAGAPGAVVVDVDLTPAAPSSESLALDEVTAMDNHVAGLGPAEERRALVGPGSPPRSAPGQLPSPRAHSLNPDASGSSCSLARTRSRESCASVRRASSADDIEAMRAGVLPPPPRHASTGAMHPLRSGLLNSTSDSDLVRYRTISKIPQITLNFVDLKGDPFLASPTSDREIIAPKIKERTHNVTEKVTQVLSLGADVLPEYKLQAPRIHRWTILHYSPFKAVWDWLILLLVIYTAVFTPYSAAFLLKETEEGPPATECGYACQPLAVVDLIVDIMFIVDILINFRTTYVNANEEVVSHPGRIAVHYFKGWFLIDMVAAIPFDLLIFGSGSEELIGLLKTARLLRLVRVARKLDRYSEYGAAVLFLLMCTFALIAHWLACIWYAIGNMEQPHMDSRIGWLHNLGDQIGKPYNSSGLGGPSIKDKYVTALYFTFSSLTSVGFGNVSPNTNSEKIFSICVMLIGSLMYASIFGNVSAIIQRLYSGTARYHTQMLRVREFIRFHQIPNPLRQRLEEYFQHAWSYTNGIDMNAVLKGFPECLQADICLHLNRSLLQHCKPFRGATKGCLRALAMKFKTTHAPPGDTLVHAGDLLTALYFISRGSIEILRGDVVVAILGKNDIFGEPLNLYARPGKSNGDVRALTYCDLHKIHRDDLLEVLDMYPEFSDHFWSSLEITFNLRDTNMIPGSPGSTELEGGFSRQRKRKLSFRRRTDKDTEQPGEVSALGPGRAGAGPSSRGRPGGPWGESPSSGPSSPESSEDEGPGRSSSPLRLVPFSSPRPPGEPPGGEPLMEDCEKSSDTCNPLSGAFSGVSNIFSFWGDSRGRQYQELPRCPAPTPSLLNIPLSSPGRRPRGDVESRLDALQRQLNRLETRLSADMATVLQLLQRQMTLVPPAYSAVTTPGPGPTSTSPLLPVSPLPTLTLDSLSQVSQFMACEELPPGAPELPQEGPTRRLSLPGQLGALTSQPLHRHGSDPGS
Regarding `Cc1ccc2c(CN3CCN(Cc4ccc5c(c4)OCO5)CC3)cc(=O)oc2c1C`, the “hERG current change (%, negative = inhibition) at 10uM” value was -35.8%.
Under `CCC(C)[C@H](NS(=O)(=O)c1ccc(C)cc1)C(=O)N1CCC(C(=O)N[C@H](C(=O)O)c2ccccc2)CC1` (stereo partly drawn) stands 12.9%; under `COCCn1c(C)cc(/C=C2/NC(=O)N(c3ccc(Cl)cc3)C2=O)c1C`, 8.34%; under `O=C(NNc1cccc(Cl)n1)Nc1ccccc1`, 2.72%.
In the case of `CCN(c1cccc2ccccc12)S(=O)(=O)c1ccc(Cl)nc1`, the “hERG current change (%, negative = inhibition) at 10uM” value was -6.6%.
Under `Cc1cccc(NC(=O)CSc2ccc(-c3ccccn3)nn2)c1C` stands 4.13%; under `CCCCn1c(N)c(N(CCC(C)C)C(=O)c2ccc3c(c2)OCO3)c(=O)[nH]c1=O`, 9.38%.
The figure for `CC1(c2cc([N+](=O)[O-])cc([N+](=O)[O-])c2)CC(C)(C)N(C(=O)c2ccccc2)c2ccccc21` (stereo not drawn) is 18.3%; for `COC1CCCCC1NCCc1ccccc1.O=C(O)C(=O)O` (stereo not drawn) it is -0.725%; for `Cc1ccc(S(=O)(=O)Nc2nc3ccccc3nc2Nc2cccc(S(=O)(=O)N3CCCC3)c2)cc1` it is 7.97%.
Under `Cc1ccc(CNC(=O)CCS(=O)(=O)c2ccc3c(c2)oc(=O)n3C)cc1` stands 12.7%; under `CCOc1ccc(/C=C2\CCc3ccccc3C2=O)cc1`, 22.2%; under `CN1C(=O)C2C3c4ccccc4C(c4ccccc43)[C@@H]2C1=O` (stereo partly drawn), 15.7%.
For `O=C1NC(=S)SC1=C1CCCCCC1`, the “hERG current change (%, negative = inhibition) at 10uM” value stood at 9.82%.
For `O=c1[nH]c2ccccc2n2cnnc12`, the “hERG current change (%, negative = inhibition) at 10uM” value was determined as 16.9%.
For the molecule `CCCN(CCC)c1ccc(/C=C/c2ccc3cc(OCC)ccc3n2)cc1`, the “hERG current change (%, negative = inhibition) at 10uM” value came out at 11.1%.
For the molecule `COc1ccc(/C=C(\C#N)C(=O)Nc2cc(C)c(Cl)cc2OC)cc1O`, the “hERG current change (%, negative = inhibition) at 10uM” value stood at 1.66%.
Under `O=C1CN(C(=O)c2ccccn2)c2ccccc2N1` stands -5.01%; under `CCc1ccc(NC(=O)C2CCN(c3c(N4CCCC4)c(=O)c3=O)CC2)cc1`, 24.7%; under `O=C(NCCN1CCCCCC1)c1ccc(CS(=O)(=O)c2ccc(Br)cc2)o1`, -57.4%.
`CC1(C)Cc2c(ccc3ccccc23)C(=O)N1`: the “hERG current change (%, negative = inhibition) at 10uM” value amounted to 4.89%.
On to `CCCN(C(=O)CSc1n[nH]c(-c2ccc(OC)cc2)n1)c1c(N)n(Cc2ccccc2)c(=O)[nH]c1=O`, for which the “hERG current change (%, negative = inhibition) at 10uM” value is 12.1%.
Under `CC(NC(=O)C1CCCO1)c1ccccc1` (stereo not drawn) stands 12.6%.
The figure for `Cc1nn(-c2ccccc2)c2sc(-c3n[nH]c(=S)o3)cc12` is 16.1%; for `O=C(CC(=O)Nc1cccnc1)Nc1cccnc1` it is 13.4%; for `CCCn1c(S(=O)(=O)O)nc2ccccc21` it is -0.963%.
Under `COc1ccccc1CCNC(=O)c1ccc(OC)c(OC2CCN(C(C)C)CC2)c1` stands -46.3%; under `COC(=O)c1cc(S(=O)(=O)NCc2ccc(S(N)(=O)=O)cc2)oc1C`, 3.94%; under `CCCCCCCCNC(=O)c1ccc(C)cc1`, 10.9%.
As for `O=C1CCc2cc(S(=O)(=O)Nc3ccc(F)cc3)ccc2N1`, the “hERG current change (%, negative = inhibition) at 10uM” value is 3.55%.
For `COc1ccc(NC(=O)C2C3C=CC4(O3)C2C(=O)N(CCCN2CCCCC2)C4C(=O)NC2CCCC(C)C2C)cc1` (stereo not drawn), the “hERG current change (%, negative = inhibition) at 10uM” value was found to be 18%.
Under `CC1CCN(C(=O)CSc2nnc(CN3CCOCC3)n2-c2ccccc2)CC1` stands 6.47%; under `COc1ccc(CNC(=O)CC2C(=O)NCCN2C2Cc3ccccc3C2)cc1` (stereo not drawn), -28.5%.
Under `COc1ccc(NC(=O)CN(C)C(=O)CCC(=O)c2ccc(C)cc2)cc1` stands -27.2%; under `CCCC1O[C@@H]2CC3C4CCC5=CC(=O)C=C[C@]5(C)C4C(OC(C)=O)C[C@]3(C)[C@]2(C(=O)COC(C)=O)O1` (stereo partly drawn), -23.1%.
On to `O=C(N/N=C/c1cccc2ccccc12)c1n[nH]c2c1CCCC2`, for which the “hERG current change (%, negative = inhibition) at 10uM” value amounted to 4.23%.
The figure for `Cc1ccc(C(=O)Nc2sc(Cc3ccc4c(c3)OCO4)c(C)c2C(N)=O)cc1` is -3.31%.
As for `Cc1[nH]c2ccc3c(ncn3CCC#N)c2c1C`, the “hERG current change (%, negative = inhibition) at 10uM” value stood at 8.81%.
The figure for `COc1ncccc1C(=O)N1CCCC(N2CCN(c3cccc(Cl)c3)CC2)C1` (stereo not drawn) is -10.7%; for `CC(NC(=O)c1ccncc1)c1ccccc1` (stereo not drawn) it is 16.7%.
The figure for `Nc1nc(Cl)cc(Oc2ccc([N+](=O)[O-])cc2)n1` is 8.95%.
The figure for `Cc1ccc(NC(=O)C2CCCN(S(=O)(=O)c3c(C)noc3C)C2)nc1` (stereo not drawn) is -18.6%; for `COc1cccc(C2(O)CCN(C(=O)C(C)C)CC2)c1` it is 6.04%.
Turning to `Cc1nnc(SCC(=O)c2cc(C)n(C3CC3)c2C)s1`, the “hERG current change (%, negative = inhibition) at 10uM” value was -3.95%.
Under `Cc1ccc(NC=C(S(=O)(=O)c2ccccc2)S(=O)(=O)c2ccccc2)cc1` stands 7.86%; under `Cn1ccnc1C(=O)c1ccc(N)cc1`, 22.4%; under `Cc1ccc(-c2noc(CNC(=O)c3ccoc3C)n2)cc1`, 10.6%.
With `Cc1ccc(C(=O)C[n+]2cc(-c3ccc(C)cc3)n3c2CCCCC3)cc1.[Br-]`, the “hERG current change (%, negative = inhibition) at 10uM” value is -53.1%.
In the case of `CCCc1cc(=O)[nH]c(SCC(=O)N2C(C)CCCC2C)n1` (stereo not drawn), the “hERG current change (%, negative = inhibition) at 10uM” value is given as 0.0814%.
For the molecule `COc1ccc(C(CNC(=O)Nc2ccc(Cl)cc2)N2CCN(C)CC2)cc1` (stereo not drawn), the “hERG current change (%, negative = inhibition) at 10uM” value is recorded as -24.5%.
The figure for `COc1cc(OC)cc(-c2n[nH]c(=S)n2-c2ccc3c(c2)OCO3)c1` is 15.4%; for `COC(=O)c1ccc(C2NC(=O)NC(C)=C2C(=O)N(C)C)cc1` (stereo not drawn) it is 8.35%; for `CCOC(=O)C1=C(C)NC2=C(C(=O)CCC2)C1c1ccc(N(C)C)cc1` (stereo not drawn) it is 0.4%.
The figure for `CCCn1c(SCC(=O)NC2CCCC2)nnc1-c1ccccn1` is 11.7%.
Under `Cc1ccc(C(=O)O)cc1S(=O)(=O)NCC1CCCO1` (stereo not drawn) stands 0.943%.
For the molecule `CC(C)Cn1c(N)c(C=O)c(=O)[nH]c1=O`, the “hERG current change (%, negative = inhibition) at 10uM” value is 9.57%.
As to `O=C(Cn1ncn2c(cc3ccccc32)c1=O)NCCC1=CCCCC1`, the “hERG current change (%, negative = inhibition) at 10uM” value stood at 7.76%.
In the case of `COc1ccccc1CNC(=O)COC(=O)c1ccc(C)s1`, the “hERG current change (%, negative = inhibition) at 10uM” value is listed as 3.82%.
With `O=C(O)COc1ccc(Br)cc1C(c1c(C(=O)O)[nH]c2ccccc12)c1c(C(=O)O)[nH]c2ccccc12`, the “hERG current change (%, negative = inhibition) at 10uM” value stood at 29.3%.
With `COc1ccccc1N1C(=O)NC(=O)C(CCc2ccncc2)(CCc2ccncc2)C1=O`, the “hERG current change (%, negative = inhibition) at 10uM” value was -46.6%.
In the case of `CCOC(=O)c1c(C)c(C(=O)NCCCOC(C)C)c(C)n1C`, the “hERG current change (%, negative = inhibition) at 10uM” value is listed as -4.47%.
The figure for `C/C(NC(=O)c1cccc(F)c1)=C1/C(=O)C[C@@H]2[C@H]1C2(C)C` is 12.1%; for `O=C(c1ccc2c(c1)OCO2)C1CCCN(Cc2cn[nH]c2-c2cccc(F)c2)C1` (stereo not drawn) it is -78.1%; for `CCCCC(=O)N/N=C/c1c(O)n(CCc2ccc(OC)c(OC)c2)c(=O)[nH]c1=O` it is 25.4%.
Regarding `FC(F)(F)c1cc(C(F)(F)F)c2ccc(N3CCOCC3)nc2n1`, the “hERG current change (%, negative = inhibition) at 10uM” value turned out to be 7.41%.
As for `CC1CCCN(Cc2nc3c(c(=O)n(C)c(=O)n3C)n2Cc2c(F)cccc2Cl)C1` (stereo not drawn), the “hERG current change (%, negative = inhibition) at 10uM” value is recorded as -1.45%.
Under `COc1cccc(-n2c(=O)c3c(C)c(C(=O)N(C)C)sc3n(CC(=O)NCCc3ccc(OC)c(OC)c3)c2=O)c1` stands 15.3%.
The figure for `Cc1ccc(S(=O)(=O)N2CCOCC2)cc1NC(=O)CSc1nnnn1C1CCCC1` is -28.2%; for `CCOc1ccc2oc(C(=O)NN3C(C)CCCC3C)c(C)c2c1` (stereo not drawn) it is 12.3%.
The figure for `CCOC(=O)c1sc2nc(C(C)C)c3c(c2c1N)CCC3` is -4.78%; for `COc1ccc(NC(=O)CSc2cc(C)ccc2C)cn1` it is 35.5%; for `CN1CCN(S(=O)(=O)c2cccc(C(=O)Nc3cc(C(N)=O)cc(C(N)=O)c3)c2)CC1` it is 4.71%.
As to `Nc1nc(Cl)nc2c1ncn2[C@H]1C[C@H](O)[C@@H](CO)O1`, the “hERG current change (%, negative = inhibition) at 10uM” value turned out to be 7.6%.
Turning to `CCCn1c(=O)[nH]c(=O)c2c1nc(-c1ccc(OC(F)F)cc1)n2CCN1CCOCC1`, the “hERG current change (%, negative = inhibition) at 10uM” value is on record as -21.6%.
The figure for `CNC(=S)NCc1ccc2[nH]c(C)cc2c1` is 31.9%; for `Br.O=C(Cn1c(NCCCO)nc2ccccc21)c1ccc(F)cc1` it is -9.54%.
In the case of `CC(C)CNc1nc(N)c([N+](=O)[O-])c(NCc2ccccc2)n1`, the “hERG current change (%, negative = inhibition) at 10uM” value was -3.8%.
Under `CC(=O)Nc1ccc(N2C(=O)CC(Sc3nc4ccccc4s3)C2=O)cc1` (stereo not drawn) stands 13.7%; under `COc1cccc(C2CC(c3cccc(OC)c3)n3nc(N)nc3N2)c1` (stereo not drawn), -4.11%.
As for `CC(=O)c1cccc(N(CC(=O)Nc2ccccc2F)S(C)(=O)=O)c1`, the “hERG current change (%, negative = inhibition) at 10uM” value is on record as 20.7%.
The figure for `CC(C)(C)NS(=O)(=O)c1ccc(OCC(=O)N2CCN(Cc3ccccc3)CC2)cc1` is -3.78%; for `O=C(O)c1ccc(OCc2occc2C(=O)O)cc1` it is 5.18%.
`COC(=O)C1C2C=CC3(CN(Cc4ccco4)C(=O)C13)O2` (stereo not drawn): the “hERG current change (%, negative = inhibition) at 10uM” value is given as 11.5%.
Under `COc1cc(CNCc2ccc(SC)cc2)cc(OC)c1` stands -14.9%; under `CCc1cc2c(=O)c(-c3nc4ccccc4[nH]3)coc2c(CN2CCCCC2)c1O`, -21.6%.
The figure for `COc1ccc(OC)c(-n2c(O)c(C=NCc3ccc4c(c3)OCO4)c(=O)[nH]c2=O)c1` is -13%; for `COc1ccc(S(=O)(=O)N2CCC(C(=O)NC3CCCC3)CC2)cc1C` it is 7.14%.
